# Laboratory results reported in PubChem BioAssay AID1347165 (National Center for Advancing Translational Sciences (NCATS), 2019).
# The campaign covered roughly 220,000 compounds. About 5,700 (2.6%) were called active. Inconclusive means that the source gave no clear call. Such entries were picked first, then a sample of the others. The call rests on the fitted dose curve; in most records, active means well fitted inhibition curve with a large enough effect; inconclusive means small, poorly fitted or top-dose-only effect; inactive means no such curve, though single readings can be large or run the other way. A potency beside an inconclusive call is a rough fit, not a confirmed value.
# Biological target: Lysine-specific demethylase 5B (Homo sapiens) (UniProt Q9UGL1)
# Chain of UniProt Q9UGL1 (Q9UGL1 whole entry, looked up): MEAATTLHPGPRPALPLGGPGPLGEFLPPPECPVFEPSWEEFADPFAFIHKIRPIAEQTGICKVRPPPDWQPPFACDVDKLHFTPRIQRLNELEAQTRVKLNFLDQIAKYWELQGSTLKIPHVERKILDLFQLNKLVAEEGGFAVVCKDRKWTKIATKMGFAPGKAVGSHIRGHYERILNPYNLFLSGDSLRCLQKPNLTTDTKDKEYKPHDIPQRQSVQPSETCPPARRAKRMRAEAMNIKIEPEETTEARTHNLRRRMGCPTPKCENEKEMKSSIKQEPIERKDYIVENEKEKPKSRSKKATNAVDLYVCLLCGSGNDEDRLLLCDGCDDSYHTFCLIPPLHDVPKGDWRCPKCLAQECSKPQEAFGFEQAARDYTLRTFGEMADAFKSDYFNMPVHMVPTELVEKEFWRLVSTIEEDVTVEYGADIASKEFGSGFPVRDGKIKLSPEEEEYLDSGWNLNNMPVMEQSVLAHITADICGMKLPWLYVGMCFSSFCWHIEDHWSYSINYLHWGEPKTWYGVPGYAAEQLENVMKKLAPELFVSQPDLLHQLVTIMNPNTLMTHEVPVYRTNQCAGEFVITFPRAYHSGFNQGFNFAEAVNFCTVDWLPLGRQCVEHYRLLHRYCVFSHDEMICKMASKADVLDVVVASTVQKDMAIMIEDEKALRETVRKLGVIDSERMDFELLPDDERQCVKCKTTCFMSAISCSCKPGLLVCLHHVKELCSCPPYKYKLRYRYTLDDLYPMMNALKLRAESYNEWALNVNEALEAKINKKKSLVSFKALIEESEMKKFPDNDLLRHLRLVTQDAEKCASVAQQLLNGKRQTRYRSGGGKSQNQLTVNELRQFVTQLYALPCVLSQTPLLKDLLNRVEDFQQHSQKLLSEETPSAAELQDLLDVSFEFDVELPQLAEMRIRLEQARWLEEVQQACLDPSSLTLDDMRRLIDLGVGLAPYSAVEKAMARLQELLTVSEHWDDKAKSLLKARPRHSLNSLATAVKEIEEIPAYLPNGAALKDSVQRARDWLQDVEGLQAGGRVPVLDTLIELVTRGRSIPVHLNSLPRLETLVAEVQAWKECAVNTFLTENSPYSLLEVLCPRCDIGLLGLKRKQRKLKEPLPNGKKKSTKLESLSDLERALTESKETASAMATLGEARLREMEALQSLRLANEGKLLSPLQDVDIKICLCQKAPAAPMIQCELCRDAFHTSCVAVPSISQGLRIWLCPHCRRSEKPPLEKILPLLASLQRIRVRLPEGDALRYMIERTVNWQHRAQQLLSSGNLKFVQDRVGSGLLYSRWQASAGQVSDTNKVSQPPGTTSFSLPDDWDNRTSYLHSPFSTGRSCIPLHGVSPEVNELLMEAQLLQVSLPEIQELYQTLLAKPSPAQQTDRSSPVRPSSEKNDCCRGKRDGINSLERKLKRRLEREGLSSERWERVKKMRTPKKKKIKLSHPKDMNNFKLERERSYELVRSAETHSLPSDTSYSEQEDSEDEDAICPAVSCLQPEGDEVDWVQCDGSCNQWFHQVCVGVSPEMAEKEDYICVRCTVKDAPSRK
# Experiment: Primary screen for KDM5B Histone Demethylases FDH-coupled qHTS; further: nearly all actives have a fitted effect of over 70% in size
# Conditions: FDH-coupled NADH fluorescence (FDH is formaldehyde dehydrogenase); series mostly up to 57.7 µM
# In short: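 KDM5BΔAP (200 nM final) in 50 mM HEPES pH 7.5, 0.01% Tween-20 was preincubated 10 min at RT with compound over a concentration range. Substrate mix (H3K4me3 12.5 µM, α-KG 25 µM, Fe²⁺, ascorbate, NAD⁺, FDH) was added, and NADH fluorescence change over 30 min gave dose-response curves.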
# Potency means the concentration at half of the fitted maximal effect; tags describe the fitted curve by direction and shape.
row,Structure (SMILES),Potency
1,Cc1ncc2c(n1)C[C@@H]1CC[C@H]2N1C(=O)CCCc1ccccc1,inactive
2,COc1ccc(-c2cc([C@H]3CN4CC[C@H]3C[C@@H]4CNC(=O)C3CC3)nc(C)n2)cc1OC,"inconclusive: 28.2 µM [inhibitor, partial curve, poor fit]"
3,CN(C[C@H]1CN2CC[C@H]1C[C@@H]2CNC(=S)NCc1ccco1)c1ccccc1,"inconclusive: 25.1 µM [inhibitor, single point]"
4,CC(C)NC(=O)N1C2CCC1CN(Cc1cccnc1)C2,inactive
5,CN1CCNc2cc(Nc3ccc(F)c(Cl)c3)ncc2C1,"inconclusive: 31.6 µM [inhibitor, single point]"
6,c1ccc(CN2CCC3(CC(c4cccnc4)=NO3)C2)nc1 (centres undefined),"inconclusive: 50.1 µM [inhibitor, partial curve, poor fit]"
7,O=Cc1cccc2ccccc12,inactive
8,CC(C)NC(=O)[C@H]1CN2CC[C@H]1C[C@@H]2Cn1cc(CO)nn1,inactive
9,O=c1c2ccccc2nc(/C=C/c2cccc3ccccc23)n1-c1ccc(Cl)cc1,inactive
10,N#Cc1cccc(NC(=O)Nc2ccc3n(c2=O)C[C@H]2C[C@@H]3CN(C3CCOCC3)C2)c1,"inconclusive: 35.5 µM [inhibitor, partial curve]"
11,Cn1ccc2ccc(C(=O)N3CCC(C#N)(c4ccccc4)CC3)cc21,"inconclusive: 17.8 µM [inhibitor, partial curve, poor fit]"
12,O=C1NCCCCCCN(Cc2ccncc2)[C@@H]2CN(C(=O)COc3ccc(F)cc3)CC[C@@H]12,"inconclusive: 39.8 µM [inhibitor, single point]"
13,CCN(CC)C[C@H]1CN2CC[C@H]1C[C@@H]2CNC(=O)NC(C)C,inactive
14,COc1ccc2[nH]c(C)c(CCNCc3ccccc3F)c2c1,inactive
15,Cc1ccc(CN2CCN(Cc3ccc(F)cc3)CC2)cc1,"inconclusive: 25.1 µM [inhibitor, single point]"
16,CCCCn1c(C)c(C(=O)OCC)c2cc(OC(C)=O)ccc21,inactive
17,CC[C@H]1CN2CC[C@H]1C[C@@H]2CNC(=O)CSCC(=O)O,inactive
18,CC(C)N1CCN(Cc2c[nH]c3ccccc23)CC1,"inconclusive: 22.4 µM [inhibitor, partial curve, poor fit]"
19,O=C(NC[C@H]1C[C@@H]2CCN1C[C@@H]2CN1CCSCC1)c1ccccc1,"inconclusive: 39.8 µM [inhibitor, partial curve, poor fit]"
20,Cc1[nH]nc2c1C(c1ccc(-c3ccc(Cl)cc3)o1)SCC(=O)N2 (centres undefined),"inconclusive: 22.4 µM [inhibitor, single point]"
21,O=C(NC1CCCCC1)N1C[C@@H]2C[C@H](C1)c1ccc(C3CCCCC3)c(=O)n1C2,active: 39.8 µM
22,O=C(Cc1ccccc1)N1[C@H]2CC[C@@H]1c1cnc(-c3ccccc3)nc1C2,inactive
23,COc1ccccc1-c1cc([C@H]2CN3CC[C@H]2C[C@@H]3COC(=O)NC2CCCCC2)nc(C)n1,active: 28.2 µM

row,Structure (SMILES),Potency
1,CN1CCN(C(=O)Cc2ccccc2)CC1,inactive
2,CCN(CC)C(=O)c1ccc(NC(=O)COc2ccc(-c3nn(C)c(=O)c4ccccc34)cc2)cc1,"inconclusive: 39.8 µM [inhibitor, single point]"
3,COc1cc2[nH]c(=O)n(-c3ccc(C)cc3)c(=O)c2cc1OC,"inconclusive: 15.8 µM [inhibitor, partial curve, poor fit]"
4,Cn1cc(C(=O)NCC(=O)NC(C)(C)C)c2ccccc21,inactive
5,NC(=O)C1CCN(C(=O)c2cn(Cc3ccccc3)c3ccccc23)CC1,"inconclusive: 39.8 µM [inhibitor, single point]"
6,Cc1ccccc1-c1ccc2n(c1=O)C[C@H]1C[C@@H]2CN(S(=O)(=O)c2cccs2)C1,"inconclusive: 31.6 µM [inhibitor, partial curve]"
7,O=C(NC[C@H]1C[C@@H]2CCN1C[C@@H]2CN1CCC(Cc2ccccc2)CC1)Nc1ccccc1,inactive
8,Cc1ncc2c(n1)C[C@@H]1CC[C@H]2N1S(=O)(=O)c1c(C)noc1C,inactive
9,FC(F)(F)CN1C2CCC1CN(c1nnc(Cl)c3ccccc13)C2,inactive
10,COc1cc2c(cc1CCc1ccccc1)N(C(=O)C1CCC(C)CC1)CC21CCN(C(C)=O)CC1 (centres undefined),inactive
11,O=C(O)CN1CCC[C@]2(C(=O)O)CN(Cc3ccncc3)CC[C@@H]12,"inconclusive: 28.2 µM [inhibitor, partial curve, poor fit]"
12,CCCn1c(C)cnc1CCNC(=O)c1nn(C)c2ccccc12,active: 25.1 µM
13,Cn1cccc1CN1CCC2(CN[S+](=O)([O-])c3cccnc3O2)C1 (centres undefined),"inconclusive: 63.1 µM [inhibitor, partial curve, poor fit]"
14,CC(C)(C)c1ccc(-c2cn(C[C@H]3CC4CCN3C[C@@H]4C(=O)Nc3ccccc3)nn2)cc1 (some centres undefined),inactive
15,CCCS(=O)(=O)Nc1ccc(=O)n2c1[C@@H]1C[C@@H](CN(C(=O)Nc3ccc(OC)cc3)C1)C2,active: 28.2 µM
16,COc1ccc(OC)c(C2SCC(=O)Nc3c2c(C)nn3-c2ccccc2)c1 (centres undefined),inactive
17,Cc1nc(-c2ccccc2Br)cc([C@H]2CN3CC[C@H]2C[C@@H]3CNC(=O)c2cccs2)n1,"inconclusive: 25.1 µM [inhibitor, single point]"
18,CCCNC(=O)OC[C@H]1C[C@@H]2CCN1C[C@@H]2c1cc(-c2ccc3ccccc3c2)nn1C,inactive
19,CCOc1ccccc1CNCCc1c[nH]c2ccccc12,inactive
20,COc1cc2c(cc1OCC1CC1)NC(=O)C21CCN(c2ccnc(C)n2)CC1,inactive
21,O=C(c1ccccc1)N1C[C@@H]2C[C@H](C1)c1ccc(NS(=O)(=O)c3cccs3)c(=O)n1C2,"inconclusive: 20 µM [inhibitor, partial curve, poor fit]"
22,COc1ccc(CNCCc2cccc(F)c2)cc1,"inconclusive: 39.8 µM [inhibitor, single point]"
23,COc1cc2c(cc1OCc1ccccc1)N(C(=O)C1CCC(C)CC1)CC21CCN(C)CC1 (centres undefined),inactive

row,Structure (SMILES),Potency
1,CN1C(=O)CO[C@H]2CN(Cc3ccccn3)C[C@H]21,active: 39.8 µM
2,Cc1ccc(NC(=O)N2C[C@@H]3C[C@H](C2)c2c(-c4cccs4)ccc(=O)n2C3)cc1,inactive
3,Cc1noc(C)c1Cc1ccc(C(=O)N2[C@H]3CC[C@@H]2c2cnc(-c4ccccc4)nc2C3)o1,inactive
4,CC(C)NC(=O)N1C[C@@H]2C[C@H](C1)c1ccc(C3CCCCC3)c(=O)n1C2,"inconclusive: 39.8 µM [inhibitor, partial curve, poor fit]"
5,COc1ccc2[nH]c(C)c(CCNCc3cccc(C(F)(F)F)c3)c2c1,"inconclusive: 15.8 µM [inhibitor, partial curve, poor fit]"
6,COc1ccc2[nH]c(C)c(CCNCCC3=C(C)CCCC3(C)C)c2c1,"inconclusive: 15.8 µM [inhibitor, partial curve, poor fit]"
7,O=C(N/N=C/c1c(O)n(Cc2ccccc2)c(=O)[nH]c1=O)c1ccncc1,"inconclusive: 5.62 µM [inhibitor, full curve, poor fit]"
8,N#CC(C#N)=Cc1ccc(C=C(C#N)C#N)cc1,"inconclusive: 2 µM [inhibitor, full curve, poor fit]"
9,O=c1cccc2n1CC1CC2CN(Cc2cc3n(n2)CCNC3)C1 (centres undefined),"inconclusive: 14.1 µM [inhibitor, partial curve, poor fit]"
10,CN1c2ncccc2CN(Cc2ccccc2)CC[C@H]1CO,active: 31.6 µM
11,O=C(O)COCC(=O)N1C[C@@H]2C[C@H](C1)c1ccc(-c3cccc(C(F)(F)F)c3)c(=O)n1C2,active: 31.6 µM
12,Cc1cc2c(c(=O)o1)C1(C(=O)Nc3ccccc31)C(C(=O)OCc1ccccc1)=C(N)O2 (centres undefined),inactive
13,O=c1c(C2CCCCC2)ccc2n1C[C@H]1C[C@@H]2CN(S(=O)(=O)c2ccccc2)C1,active: 31.6 µM
14,O=C1N(C2CCCCC2)C[C@H]2CN(Cc3ccncc3)CCN12,"inconclusive: 31.6 µM [inhibitor, partial curve]"
15,Cc1nc(-c2ccco2)cc([C@H]2CN3CC[C@H]2C[C@@H]3CNC(=O)C(C)(C)C)n1,"inconclusive: 35.5 µM [inhibitor, single point]"
16,O=C(O)C1=NOC2CN(Cc3ccncc3)CC12 (centres undefined),"inconclusive: 100 µM [inhibitor, partial curve, poor fit]"
17,CC1=C(C(=O)OCc2ccc3c(c2)OCO3)[C@H]2C[C@](C)(N1)Oc1ccccc12,inactive
18,Cc1ccc2c(n1)N(C)[C@H](CO)CCN(CC(C)(C)C)C2,"inconclusive: 39.8 µM [inhibitor, single point]"
19,COCCCn1c(C)cc(C(=O)NC2CCc3nnc(C4CC4)n3CC2)c1C (centres undefined),"inconclusive: 28.2 µM [inhibitor, single point]"
20,O=C1NCCCCCCN(Cc2ccncc2F)[C@H]2CCC[C@@H]12,"inconclusive: 5.62 µM [inhibitor, partial curve]"
21,Cc1ccc(OCC(=O)N2CCN(Cc3ccc(F)cc3)CC2)cc1,"inconclusive: 7.94 µM [inhibitor, partial curve, poor fit]"
22,COc1ccccc1-c1cc([C@H]2CN3CC[C@H]2C[C@@H]3CNS(=O)(=O)c2ccc(NC(C)=O)cc2)nc(C)n1,active: 31.6 µM
23,Cn1c(=O)c2c(nc(N/N=C/c3c(O)n(C4CCCCC4)c(=S)[nH]c3=O)n2C)n(C)c1=O,"inconclusive: 17.8 µM [inhibitor, partial curve, poor fit]"
